Results reported in PubChem BioAssay AID1345082 (National Center for Advancing Translational Sciences (NCATS), 2018).
Among all 94,000 compounds or so, about 4,000 (4.3%) were called active. This list was built around the results that the source calls inconclusive (neither active nor inactive); the mix of calls is not that of the screen. The call rests on the fitted dose curve; in most records, active means well fitted inhibition curve with a large enough effect; inconclusive means small, poorly fitted or top-dose-only effect; inactive means no such curve, though single readings can be large or run the other way. Potencies beside an inconclusive call are fits to weak or partial responses and may not hold up.

test: Cytotoxic Profiling in NIH 3T3 Cell Line of Diverse Libraries Using Quantitative High-Throughput Screening; conditions: NIH 3T3 viability, CellTiter-Glo ATP luminescence, 48-72 h; series mostly up to 96.7 µM; further: nearly all actives have a fitted effect of over 55% in size
Method in brief: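 Cytotoxicity was measured by CellTiter-Glo ATP luminescence after 48 or 72 h compound exposure at 37 °C. Mouse NIH 3T3 fibroblasts were seeded at 400 cells/well and dosed by 23 nL pin transfer.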
Potency means the concentration at half of the fitted maximal effect; tags describe the fitted curve by direction and shape.

Row | SMILES | Potency
1 | CCc1cccc2c(C(CC(=O)NCc3ccc(F)cc3)c3cccc(OC)c3OC)c[nH]c12 (configuration not stated) | inconclusive: 50.1 µM [inhibitor, partial curve, poor fit]
2 | Cc1ccc(C(N)=O)cc1-c1cc(NCc2cccnc2)nc2[nH]ccc12 | inconclusive: 50.1 µM [inhibitor, partial curve, poor fit]
3 | O=C(C1CCCCC1)N1CC(=O)N(C2Cc3ccccc3C2)CC(O)C1 (configuration not stated) | inconclusive: 56.2 µM [inhibitor, partial curve, poor fit]
4 | Cc1noc(C)c1[S+](=O)([O-])N1CCCC2(CC(c3cccc(C(F)(F)F)c3)=NO2)C1 (configuration not stated) | inactive
5 | S=C(Nc1cccc2ccccc12)N[C@H]1CO[C@H]2[C@@H]1OC[C@H]2OCc1ccccc1 | inconclusive: 56.2 µM [inhibitor, partial curve, poor fit]
6 | O=C1Nc2ccc(-c3ccccc3)cc2C(=O)N2CCN(C(=O)c3cccc(F)c3)C[C@H]12 | inconclusive: 112 µM [inhibitor, partial curve, poor fit]
7 | COCCN(C)C(=O)c1ccc2c(c1)NC(C)(CCCCc1ccccc1)CO2 (configuration not stated) | inconclusive: 79.4 µM [inhibitor, partial curve]
8 | CC(C)c1ccc(NC(=O)O[C@@H]2CO[C@H]3[C@@H]2OC[C@@H]3NS(=O)(=O)Cc2ccccc2)cc1 | inconclusive: 44.7 µM [inhibitor, partial curve]
9 | O=C(CC1=C2CCCCC2NC1=O)NC1CC1 (configuration not stated) | inactive
10 | CN(C)C[C@@H]1CN(c2ccncn2)C[C@H]1NC(=O)c1cnco1 | inactive
11 | COCCN1CCOC2(CCN([S+](=O)([O-])c3cccc(C)c3)CC2)C1=O | active: 89.1 µM
12 | O=C(NCCc1ccc(Cl)cc1)c1ccc2nnc(Cc3ccco3)n2c1 | inconclusive: 39.8 µM [inhibitor, partial curve]
13 | COc1ccc([C@@H](NC(=O)CN2CCCCCC2=O)C2CC(O)C2)cc1F (some centres not stated) | inactive
14 | O=C(NC1CCN(c2cc(-c3ccccc3)[nH]n2)CC1)c1ccccc1 | inconclusive: 44.7 µM [inhibitor, partial curve, poor fit]
15 | Cc1ccc(Nc2ccnc(N3CCCC(C(=O)NCCc4ccc(F)cc4)C3)n2)cc1 (configuration not stated) | active: 31.6 µM
16 | CNC(=O)c1cc(C2CC2)nc2onc(C3CCN(C(=O)c4ccc(F)cc4)CC3)c12 | inconclusive: 50.1 µM [inhibitor, partial curve, poor fit]
17 | CC(C)CCNC(=O)CCC1CCN(S(=O)(=O)c2cccc(F)c2)CC1 | inactive
18 | Cc1cc(=O)n(CC(=O)Nc2c(C)cccc2C)c(N(C)Cc2ccccc2)n1 | inconclusive: 44.7 µM [inhibitor, partial curve, poor fit]
19 | CC1=C[C@@H](CN2CCC(O)CC2)[C@H](C(C)C)C[C@H]1Cc1nnc(-c2ccncc2)o1 | inconclusive: 28.2 µM [inhibitor, partial curve, poor fit]
20 | CCOC(=O)[C@@H]1CN(C(=O)c2cccc(OC)c2)[C@H]2c3ccccc3O[C@@H]12 | inconclusive: 50.1 µM [inhibitor, partial curve, poor fit]
21 | COCCOCC(=O)N1CCC(N2CC3CC(C2)[C@H]2CCCC(=O)N2C3)CC1 (some centres not stated) | inactive

Row | SMILES | Potency
22 | CCn1nccc1C(=O)N1CCCN(C)c2ccccc21 | inconclusive: 79.4 µM [inhibitor, partial curve, poor fit]
23 | Cc1cc2cc(-c3c(C)noc3C)nc(-c3ccsc3)c2o1 | inconclusive: 79.4 µM [inhibitor, partial curve]
24 | Cc1noc(C)c1CN1CCC2(CC1)COCCN2C(=O)c1ccccc1 | inconclusive: 112 µM [inhibitor, single point]
25 | COCC(=O)NC1CCN(Cc2ccc(-c3ccccc3OC)cc2)C1 (configuration not stated) | inconclusive: 50.1 µM [inhibitor, partial curve, poor fit]
26 | COc1ccccc1C(=O)N1CCC(N2C(=O)c3c(c(C)nn3-c3ccccc3)C2C)CC1 (configuration not stated) | inconclusive: 56.2 µM [inhibitor, partial curve, poor fit]
27 | CCNC(=O)OC1CCN(C(=O)c2cc3ccccc3s2)CC(=O)N(C)c2ccccc21 (configuration not stated) | inconclusive: 50.1 µM [inhibitor, partial curve, poor fit]
28 | COc1cccc(C(=O)Nc2ccc3c(c2)CN(Cc2ccc(F)cc2)C(=O)C(C)O3)c1 (configuration not stated) | inconclusive: 39.8 µM [inhibitor, partial curve]
29 | COc1ccccc1Cn1c(=O)c(C(=O)N2CCN(C(=O)Cc3ccc(F)cc3)CC2)nc2cccnc21 | inconclusive: 44.7 µM [inhibitor, partial curve, poor fit]
30 | CCCc1cc(C(=O)N2CCC(=O)N(Cc3ccccc3)C(CC)C2)ccn1 (configuration not stated) | inconclusive: 2.82 µM [inhibitor, full curve, poor fit]
31 | CN(Cc1nccs1)C(=O)CC(c1ccccc1)c1cccc(Cl)c1 (configuration not stated) | inconclusive: 56.2 µM [inhibitor, partial curve, poor fit]
32 | COCCCn1c(=O)c(C(=O)N(C)C)nc2cccnc21 | inactive
33 | O=C1CC2(CCN(C(=O)c3ccccc3)CC2)Oc2ccccc21 | inconclusive: 50.1 µM [inhibitor, partial curve, poor fit]
34 | COc1ccc(-c2ccc3c(c2)C(=O)N2CC[C@H](NC(=O)CSC)[C@H]2C(=O)N3)cc1 | inconclusive: 112 µM [inhibitor, partial curve]
35 | O=C(CCC1CCCC1)Nc1cccc(-c2nnc3n2CCCC3)c1 | inactive
36 | CC1=NS(=O)(=O)N(Cc2ccccc2)C=C1C(=O)OCc1noc(C2CCCC2)n1 | inconclusive: 15.8 µM [inhibitor, full curve]
37 | CN(C)C(=O)NC1CCCN(c2ccc3nnc(-c4ccccc4)n3n2)C1 (configuration not stated) | active: 44.7 µM
38 | N#Cc1ccc(C(=O)N2CCC3(CC2)NC(=O)N(Cc2ccccc2)C3=O)cc1 | inconclusive: 70.8 µM [inhibitor, single point]
39 | CCOc1ccc(NC(=O)c2cc3n(n2)CC(c2ccc4c(c2)OCO4)OC3)cc1 (configuration not stated) | inconclusive: 22.4 µM [inhibitor, partial curve]
40 | COc1cccc(C(O)c2nc(C(=O)Nc3ccc4c(c3)OCC(=O)N4)c(C)o2)c1 (configuration not stated) | inconclusive: 79.4 µM [inhibitor, partial curve, poor fit]
41 | COc1ccc(-c2noc(CC3CCN(C(=O)c4cc(F)cc(F)c4)CC3)n2)cc1 | inconclusive: 5.62 µM [inhibitor, full curve, poor fit]
42 | O=C(c1cn2ccsc2n1)N1CCC2(CCNCC2)CC1 | inactive

Row | SMILES | Potency
43 | COc1ccc(-n2nc(C3CCCN(Cc4cccc5ccccc45)C3)[nH]c2=O)cc1 (configuration not stated) | inconclusive: 50.1 µM [inhibitor, partial curve, poor fit]
44 | CCNC[C@H]1O[C@H](Cc2cc(-c3ccc(F)cc3)on2)CC[C@@H]1O | inconclusive: 89.1 µM [inhibitor, partial curve, poor fit]
45 | Cc1ccc(Cn2ccn3nc(-c4ccccc4)c(CO)c3c2=O)cc1 | inconclusive: 70.8 µM [inhibitor, single point]
46 | CN(Cc1ccnn1C)C1CCOc2ccccc21 (configuration not stated) | inconclusive: 70.8 µM [inhibitor, partial curve, poor fit]
47 | O=C(N[C@@H]1CN(Cc2cccc(F)c2)C[C@H]1CO)c1ccccc1 | inconclusive: 7.94 µM [inhibitor, full curve]
48 | Cc1nn(-c2ccccc2)c2c1C(C(C)C)N(C1CCN(C(=O)Cc3cccc(Cl)c3)C1)C2=O (configuration not stated) | active: 35.5 µM
49 | COc1ccccc1C(=O)N1CCC2(CC1)OC(=O)N(Cc1csc(C)n1)C2(C)c1ccccc1 (configuration not stated) | inconclusive: 79.4 µM [inhibitor, single point]
50 | O=C(NC1CCCCC1)N1CCC(N2CC3CC(C2)[C@H]2CCCC(=O)N2C3)CC1 (some centres not stated) | inactive
51 | CC(=O)c1ccc(NC(=O)O[C@@H]2CO[C@H]3[C@@H]2OC[C@@H]3NC(=O)C2CC2)cc1 | inactive
52 | Cc1ccc(CN2CC3(Cc4ccccc4C(=O)N3)C2)cc1 | inconclusive: 56.2 µM [inhibitor, partial curve, poor fit]
53 | O=C(NC1CCCN(c2cc(-c3ccccc3)[nH]n2)C1)c1ccccc1 (configuration not stated) | inconclusive: 50.1 µM [inhibitor, partial curve, poor fit]
54 | O=C(CCc1ccccc1)N1CC(c2noc(COc3ccccc3)n2)C1 | inconclusive: 44.7 µM [inhibitor, partial curve, poor fit]
55 | O=C(C1CCCC1)N1CC2(CCN(CC3CC3)C2)Cc2ccccc21 (configuration not stated) | active: 44.7 µM
56 | O[C@@H]1C[C@@H](c2nc(-c3ccccc3)no2)N(Cc2ccccc2)C1 | inconclusive: 89.1 µM [inhibitor, partial curve, poor fit]
57 | Cn1cc(CNc2ccc(-c3nc(-c4cccc(C(F)(F)F)c4)no3)cn2)cn1 | inconclusive: 17.8 µM [inhibitor, full curve]
58 | CC1(C)C(=O)NC(=O)N1CC(=O)N1CCCC(CCc2c(F)cccc2F)C1 (configuration not stated) | inactive
59 | CCCCNC(=O)c1cccc2c1CCN2C(=O)C1CC1 | inconclusive: 50.1 µM [inhibitor, partial curve, poor fit]
60 | CN1CCC(NC(=O)C2(C)CN(Cc3ccccc3)Cc3ccc(Nc4ccccc4)nc32)CC1 (configuration not stated) | active: 15.8 µM
61 | Fc1ccccc1OCC1CCCN(c2nccc(-c3cccnc3)n2)C1 (configuration not stated) | active: 79.4 µM
62 | COCc1nncn1C1CCN(S(=O)(=O)c2ccc(Br)s2)CC1 | inconclusive: 39.8 µM [inhibitor, partial curve]
